Assay results: PMC8113725, “Structure–activity relationship of ipglycermide binding to phosphoglycerate mutases” (The Journal of Biological Chemistry, 2021)

Legend:
B. malayi iPGM = B. malayi iPGM (Brugia malayi, UniProt Q4VWF8); test: biochemical; conditions: Bm iPGM Ave IC50 (M), 5 nM enzyme
O. volvulus iPGM = O. volvulus iPGM (Onchocerca volvulus, UniProt I6LDA6); test: biochemical; conditions: Ov iPGM Ave IC50 (M), 5 nM enzyme
C. elegans iPGM = C. elegans iPGM (Caenorhabditis elegans, UniProt G5EFZ1); test: PGM enzyme assay (enolase–pyruvate kinase coupled, Kinase-Glo Plus end point) and IC50 determination; format: biochemical; conditions: Ce iPGM Ave IC50 (M), 5 nM enzyme
[1] = Supplementary Table 4b, Ce-2d analogs
[2] = Supplementary Table 4a, Ce-2 analogs, average of N=2-3 independent experiments

Chain of UniProt I6LDA6 (I6LDA6 whole entry): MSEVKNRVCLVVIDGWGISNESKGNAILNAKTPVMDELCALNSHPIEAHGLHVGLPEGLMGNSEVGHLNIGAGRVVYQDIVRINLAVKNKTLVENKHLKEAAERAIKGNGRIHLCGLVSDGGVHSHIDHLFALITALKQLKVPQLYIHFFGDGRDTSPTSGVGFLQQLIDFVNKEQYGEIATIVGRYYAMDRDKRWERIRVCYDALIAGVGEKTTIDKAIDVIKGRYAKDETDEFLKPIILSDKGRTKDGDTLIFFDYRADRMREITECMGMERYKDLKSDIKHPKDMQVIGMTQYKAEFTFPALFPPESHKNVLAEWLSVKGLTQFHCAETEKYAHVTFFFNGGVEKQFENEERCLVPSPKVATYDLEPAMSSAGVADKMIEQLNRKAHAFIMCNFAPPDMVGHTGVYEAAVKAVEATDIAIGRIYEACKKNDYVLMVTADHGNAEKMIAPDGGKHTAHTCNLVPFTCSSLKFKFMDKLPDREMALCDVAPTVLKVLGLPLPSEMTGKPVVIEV
Chain of UniProt Q4VWF8 (Q4VWF8 whole entry): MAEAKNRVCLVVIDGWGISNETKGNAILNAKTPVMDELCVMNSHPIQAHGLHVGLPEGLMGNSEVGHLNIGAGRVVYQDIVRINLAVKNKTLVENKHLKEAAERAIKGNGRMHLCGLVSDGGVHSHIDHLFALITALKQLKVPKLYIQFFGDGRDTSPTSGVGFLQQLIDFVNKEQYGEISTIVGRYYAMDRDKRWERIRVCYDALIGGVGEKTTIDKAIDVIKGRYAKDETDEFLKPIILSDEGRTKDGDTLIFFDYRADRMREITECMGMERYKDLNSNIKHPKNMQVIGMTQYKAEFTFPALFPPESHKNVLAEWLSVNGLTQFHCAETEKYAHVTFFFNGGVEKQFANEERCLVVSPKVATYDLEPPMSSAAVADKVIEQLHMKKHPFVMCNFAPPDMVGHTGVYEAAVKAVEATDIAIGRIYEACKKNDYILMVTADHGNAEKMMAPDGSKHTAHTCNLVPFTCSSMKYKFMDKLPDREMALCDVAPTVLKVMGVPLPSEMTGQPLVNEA

Structure (SMILES)	IC50 (B. malayi iPGM; [1]) [M]	IC50 (O. volvulus iPGM; [1]) [M]	IC50 (C. elegans iPGM; [1]) [M]	IC50 (B. malayi iPGM; [2]) [M]	IC50 (O. volvulus iPGM; [2]) [M]	IC50 (C. elegans iPGM; [2]) [M]
COc1ccc(C[C@H](NC(=O)[C@@H]2CSCC(=O)N[C@H](Cc3ccc(O)cc3)C(=O)N[C@@H](CC(=O)O)C(=O)N[C@@H](Cc3ccc(O)cc3)C(=O)N3CCC[C@H]3C(=O)NCC(=O)N[C@@H](CC(=O)O)C(=O)N[C@@H](Cc3ccc(O)cc3)C(=O)N2)C(=O)N[C@@H](CC(C)C)C(=O)N[C@@H](Cc2ccc(O)cc2)C(N)=O)cc1 [Ce-2d Y9(4OMe)F]	1.2e-06	3.27e-06	3.79e-08			
COc1ccc(C[C@@H]2NC(=O)CSC[C@@H](C(=O)N[C@@H](Cc3ccc(O)cc3)C(=O)N[C@@H](CC(C)C)C(=O)N[C@@H](Cc3ccc(O)cc3)C(N)=O)NC(=O)[C@H](Cc3ccc(O)cc3)NC(=O)[C@H](CC(=O)O)NC(=O)CNC(=O)[C@@H]3CCCN3C(=O)[C@H](Cc3ccc(O)cc3)NC(=O)[C@H](CC(=O)O)NC2=O)cc1 [Ce-2d Y1(4OMe)F]	1.58e-08	3.87e-08	4.48e-09			
CC(C)C[C@H](NC(=O)[C@H](Cc1ccc(O)cc1)NC(=O)[C@@H]1CSCC(=O)N[C@H](Cc2ccc(O)cc2)C(=O)N[C@@H](CC(=O)O)C(=O)N[C@@H](Cc2ccc(O)cc2)C(=O)N2CCC[C@H]2C(=O)NCC(=O)N[C@@H](CC(=O)O)C(=O)N[C@@H](Cc2ccc(O)cc2)C(=O)N1)C(=O)N[C@@H](Cc1ccc(O)cc1)C(=O)NCC(=O)NCC(=O)N[C@@H](Cc1c[nH]cn1)C(N)=O [Ce-2 T13G, C14H]				6.96e-08	1.17e-07	6.84e-09
CC(=O)N[C@@H](Cc1ccc(O)cc1)C(=O)NCC(=O)N[C@H](C(=O)N[C@@H](CS)C(N)=O)[C@@H](C)O [Ac-YGTCNH2, Ac-YGTC-CONH2] (Ac-YGTC-NH2)					> 0.001	0.000999
CC(C)C[C@H](NC(=O)[C@H](Cc1ccc(O)cc1)NC(=O)[C@@H]1CSCC(=O)N[C@H](Cc2ccc(O)cc2)C(=O)N[C@@H](CC(=O)O)C(=O)N[C@@H](Cc2ccc(O)cc2)C(=O)N2CCC[C@H]2C(=O)NCC(=O)N[C@@H](CC(=O)O)C(=O)N[C@@H](Cc2ccc(O)cc2)C(=O)N1)C(=O)N[C@@H](Cc1ccccc1)C(N)=O [Ce-2d Y11F]	5.53e-08	2.14e-07	8e-09			
CC(C)[C@H](NC(=O)[C@H](Cc1ccc(O)cc1)NC(=O)[C@@H]1CSCC(=O)N[C@H](Cc2ccc(O)cc2)C(=O)N[C@@H](CC(=O)O)C(=O)N[C@@H](Cc2ccc(O)cc2)C(=O)N2CCC[C@H]2C(=O)NCC(=O)N[C@@H](CC(=O)O)C(=O)N[C@@H](Cc2ccc(O)cc2)C(=O)N1)C(=O)N[C@@H](Cc1ccc(O)cc1)C(N)=O [Ce-2d L10V]	1.31e-06	6.66e-06	1.37e-07			
CC(C)C[C@H](NC(=O)[C@H](Cc1ccc(O)cc1)NC(=O)[C@@H]1CSCC(=O)N[C@H](Cc2ccc(O)cc2)C(=O)N[C@@H](CC(=O)O)C(=O)N[C@@H](Cc2c[nH]c3ccccc23)C(=O)N2CCC[C@H]2C(=O)NCC(=O)N[C@@H](CC(=O)O)C(=O)N[C@@H](Cc2ccc(O)cc2)C(=O)N1)C(=O)N[C@@H](Cc1ccc(O)cc1)C(N)=O [Ce-2d Y3W]	2.68e-06	1.12e-05	7.59e-07			
COc1ccc(C[C@H](NC(=O)[C@H](CC(C)C)NC(=O)[C@H](Cc2ccc(O)cc2)NC(=O)[C@@H]2CSCC(=O)N[C@H](Cc3ccc(O)cc3)C(=O)N[C@@H](CC(=O)O)C(=O)N[C@@H](Cc3ccc(O)cc3)C(=O)N3CCC[C@H]3C(=O)NCC(=O)N[C@@H](CC(=O)O)C(=O)N[C@@H](Cc3ccc(O)cc3)C(=O)N2)C(N)=O)cc1 [Ce-2d Y11(4OMe)F]	6.97e-08	1.55e-07	6.31e-09			
CC(C)C[C@H](NC(=O)[C@H](Cc1ccc(O)cc1)NC(=O)[C@@H]1CSCC(=O)N[C@H](Cc2ccc(O)cc2)C(=O)N[C@@H](CC(N)=O)C(=O)N[C@@H](Cc2ccc(O)cc2)C(=O)N2CCC[C@H]2C(=O)NCC(=O)N[C@@H](CC(=O)O)C(=O)N[C@@H](Cc2ccc(O)cc2)C(=O)N1)C(=O)N[C@@H](Cc1ccc(O)cc1)C(=O)NCC(=O)N[C@H](C(=O)N[C@@H](CS)C(N)=O)[C@@H](C)O [Ce-2 D2N] ({CH2CO}-[dY]NYPGDYCYLYGTC-NH2; thioether N-8)				2.13e-09	2.9e-09	2.27e-09
CC(C)C[C@H](NC(=O)[C@H](Cc1ccc(O)cc1)NC(=O)[C@@H]1CSCC(=O)N[C@H](Cc2ccc(O)cc2)C(=O)N[C@@H](CC(=O)O)C(=O)N[C@@H](Cc2ccc(O)cc2)C(=O)N[C@@H](Cc2c[nH]cn2)C(=O)NCC(=O)N[C@@H](CC(=O)O)C(=O)N[C@@H](Cc2ccc(O)cc2)C(=O)N1)C(=O)N[C@@H](Cc1ccc(O)cc1)C(N)=O [Ce-2d P4H]			6.96e-08			
CC(C)C[C@H](NC(=O)[C@H](Cc1ccc(O)cc1)NC(=O)[C@@H]1CSCC(=O)N[C@H](Cc2ccc(O)cc2)C(=O)N[C@@H](CC(=O)O)C(=O)N[C@@H](Cc2ccc(O)cc2)C(=O)N2CCC[C@H]2C(=O)NCC(=O)N[C@@H](CC(=O)O)C(=O)N[C@@H](Cc2ccc(O)cc2)C(=O)N1)C(=O)N[C@@H](Cc1ccc(F)cc1)C(N)=O [Ce-2d Y11(4F)F]	4.74e-08	1.4e-07	3.69e-09			
COc1ccc(C[C@H]2NC(=O)CSC[C@@H](C(=O)N[C@@H](Cc3ccc(O)cc3)C(=O)N[C@@H](CC(C)C)C(=O)N[C@@H](Cc3ccc(O)cc3)C(N)=O)NC(=O)[C@H](Cc3ccc(O)cc3)NC(=O)[C@H](CC(=O)O)NC(=O)CNC(=O)[C@@H]3CCCN3C(=O)[C@H](Cc3ccc(O)cc3)NC(=O)[C@H](CC(=O)O)NC2=O)cc1 [Ce-2d Y1D(4OMe)F]	3.95e-08	1.53e-07	1.35e-08			
CC(C)C[C@H](NC(=O)[C@H](Cc1ccc(O)cc1)NC(=O)[C@@H]1CSCC(=O)N[C@H](Cc2ccc(O)cc2)C(=O)N[C@@H](CC(=O)O)C(=O)N[C@@H](Cc2ccc(F)cc2)C(=O)N2CCC[C@H]2C(=O)NCC(=O)N[C@@H](CC(=O)O)C(=O)N[C@@H](Cc2ccc(O)cc2)C(=O)N1)C(=O)N[C@@H](Cc1ccc(O)cc1)C(N)=O [Ce-2d Y3(4F)F]	9.19e-08	3.76e-07	3.76e-08			
CC(C)C[C@H](NC(=O)[C@H](Cc1ccc(O)cc1)NC(=O)[C@@H]1CSCC(=O)N[C@@H](Cc2ccc(F)cc2)C(=O)N[C@@H](CC(=O)O)C(=O)N[C@@H](Cc2ccc(O)cc2)C(=O)N2CCC[C@H]2C(=O)NCC(=O)N[C@@H](CC(=O)O)C(=O)N[C@@H](Cc2ccc(O)cc2)C(=O)N1)C(=O)N[C@@H](Cc1ccc(O)cc1)C(N)=O [Ce-2d Y1(4F)F]	3.39e-08	1.26e-07	2.49e-09			
CC(C)C[C@@H]1NC(=O)[C@H](Cc2ccc(O)cc2)NC(=O)[C@H](CS)NC(=O)[C@H](Cc2ccc(O)cc2)NC(=O)[C@H](CC(=O)O)NC(=O)CNC(=O)[C@@H]2CCCN2C(=O)[C@H](Cc2ccc(O)cc2)NC(=O)[C@H](CC(=O)O)NC(=O)[C@@H](Cc2ccc(O)cc2)NC(=O)CSC[C@@H](C(N)=O)NC(=O)[C@H]([C@@H](C)O)NC(=O)CNC(=O)[C@H](Cc2ccc(O)cc2)NC1=O [Ce-2 [Y1-->C14]]				1.59e-05	5.2e-06	2e-06
CC(C)C[C@H](NC(=O)[C@H](Cc1ccc(O)cc1)NC(=O)[C@@H]1CSCC(=O)N[C@H](Cc2ccc(O)cc2)C(=O)N[C@@H](CC(=O)O)C(=O)N[C@@H](Cc2ccc(O)cc2)C(=O)N2CCC[C@H]2C(=O)NCC(=O)N[C@@H](CC(=O)O)C(=O)N[C@@H](Cc2ccc(F)cc2)C(=O)N1)C(=O)N[C@@H](Cc1ccc(O)cc1)C(=O)NCC(=O)N[C@H](C(=O)N[C@@H](CS)C(N)=O)[C@@H](C)O [Ce-2 Y7(4F)F]				1.42e-09	2.28e-09	1.79e-09
CC(C)C[C@H](NC(=O)[C@H](Cc1ccc(O)cc1)NC(=O)[C@@H]1CSCC(=O)N[C@H](Cc2ccc(O)cc2)C(=O)NCC(=O)N[C@@H](Cc2ccc(O)cc2)C(=O)N2CCC[C@H]2C(=O)NCC(=O)N[C@@H](CC(=O)O)C(=O)N[C@@H](Cc2ccc(O)cc2)C(=O)N1)C(=O)N[C@@H](Cc1ccc(O)cc1)C(N)=O [Ce-2d D2G]	9.9e-07	3.86e-06	5.66e-08			
CC(C)C[C@H](NC(=O)[C@H](Cc1ccc(O)cc1)NC(=O)[C@@H]1CSCC(=O)N[C@H](Cc2ccc(O)cc2)C(=O)N[C@@H](CC(=O)O)C(=O)N[C@@H](Cc2ccc(O)cc2)C(=O)N2CCC[C@H]2C(=O)NCC(=O)NCC(=O)N[C@@H](Cc2ccc(O)cc2)C(=O)N1)C(=O)N[C@@H](Cc1ccc(O)cc1)C(N)=O [Ce-2d D6G]			4.25e-06			
CC(C)C[C@H](NC(=O)[C@H](Cc1ccccc1)NC(=O)[C@@H]1CSCC(=O)N[C@H](Cc2ccc(O)cc2)C(=O)N[C@@H](CC(=O)O)C(=O)N[C@@H](Cc2ccc(O)cc2)C(=O)N2CCC[C@H]2C(=O)NCC(=O)N[C@@H](CC(=O)O)C(=O)N[C@@H](Cc2ccc(O)cc2)C(=O)N1)C(=O)N[C@@H](Cc1ccc(O)cc1)C(N)=O [Ce-2d Y9F]	1.52e-06		1.25e-07			
CC(C)C[C@H](NC(=O)[C@H](Cc1ccccc1)NC(=O)[C@@H]1CSCC(=O)N[C@H](Cc2ccc(O)cc2)C(=O)N[C@@H](CC(=O)O)C(=O)N[C@@H](Cc2ccc(O)cc2)C(=O)N2CCC[C@H]2C(=O)NCC(=O)N[C@@H](CC(=O)O)C(=O)N[C@@H](Cc2ccc(O)cc2)C(=O)N1)C(=O)N[C@@H](Cc1ccc(O)cc1)C(=O)NCC(=O)N[C@H](C(=O)N[C@@H](CS)C(N)=O)[C@@H](C)O [Ce-2 Y9F] ({CH2CO}-[dY]DYPGDYCFLYGTC-NH2; thioether N-8)					3.36e-09	1.07e-09

Bridge positions count the residues as written; N and C are the ends. Square brackets hold non-standard residues; d marks the D form. Peptide text beside a SMILES is read from it.
